{"source": "PubChem BioAssay AID2675", "about": "(National Center for Advancing Translational Sciences (NCATS), 2010)", "note": "About 100 (0.036%) of roughly 280,000 compounds were called active. The inconclusive results got no clear call from the source; some entries with a clear call stand among them for comparison. Calls follow the shape of the dose curve; as a rule, active = well fitted inhibition curve with a large enough effect in the signal ratio, with a control signal flat (not every such curve was filed as active); inconclusive = small, poorly fitted or top-dose-only effect, or effect the other way, or a change in a side signal; inactive = no such curve, though single readings can be large or run the other way; the % refers to the signal ratio. Potencies beside an inconclusive call are fits to weak or partial responses and may not hold up. A note “side channel” means that the fit belongs to a control or component signal, not to the main read-out. Potency is read from the fitted curve at half-maximal effect; tags tell the direction and shape of the fitted curve or compound fluorescence and quenching.", "data": [{"target": "Muscleblind-like protein 1 (Homo sapiens) (UniProt Q9NR56)", "sequence (Q9NR56 whole entry, looked up)": "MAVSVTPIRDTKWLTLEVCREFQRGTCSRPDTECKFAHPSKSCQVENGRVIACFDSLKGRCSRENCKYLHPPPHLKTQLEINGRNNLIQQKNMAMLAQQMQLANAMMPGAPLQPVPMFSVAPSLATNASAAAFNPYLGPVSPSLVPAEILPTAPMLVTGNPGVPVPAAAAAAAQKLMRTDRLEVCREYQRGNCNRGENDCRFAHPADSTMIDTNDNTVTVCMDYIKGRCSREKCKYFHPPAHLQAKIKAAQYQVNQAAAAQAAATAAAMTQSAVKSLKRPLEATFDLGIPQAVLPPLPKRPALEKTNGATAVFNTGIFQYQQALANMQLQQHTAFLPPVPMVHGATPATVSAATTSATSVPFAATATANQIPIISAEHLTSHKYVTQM", "assay": "qHTS Assay for Inhibitors of MBNL1-poly(CUG) RNA binding", "conditions": "TR-FRET MBNL1-His/biotin-(CUG)12 binding, 665/545 ratio; series mostly up to 57.5 µM", "outline": "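Inhibition of protein-RNA binding appears as loss of TR-FRET between terbium anti-His antibody on MBNL1-His and streptavidin-XL665 on biotin-(CUG)12. Activity is normalized to buffer-only and uninhibited-complex controls.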", "values": [{"smiles": "COc1ccccc1CCNC(=O)CCn1nc(C)c2c(C)n(-c3ccccc3)nc2c1=O", "Potency": "inactive"}, {"smiles": "O=c1c2c3n(c(=S)nc2[nH]n1-c1ccccc1)CCCCC3", "Potency": "inconclusive: 17.8 µM [quencher, side channel, single point]"}, {"smiles": "CC(C)Cn1[nH]c2c3c(ccc2c1=O)C(=O)c1ccccc1C3=O", "Potency": "inconclusive: 2 µM [quencher, side channel, full curve]"}, {"smiles": "Cc1ccc2cc(CN(CCCO)S(=O)(=O)c3cccc4nsnc34)c(=O)[nH]c2c1", "Potency": "inconclusive: 3.98 µM [quencher, side channel, full curve]"}, {"smiles": "Cc1cc(C)n2cc(CSc3nc4ccccc4s3)nc2n1", "Potency": "inconclusive: 0.631 µM [fluorescent, side channel, partial curve]"}, {"smiles": "COc1cc(-c2noc(C)n2)cc(OC)c1OC", "Potency": "inactive"}, {"smiles": "CCN(CCNC(=O)C1CCN(S(=O)(=O)c2cccc3nsnc23)CC1)c1ccccc1", "Potency": "inconclusive: 17.8 µM [quencher, side channel, partial curve]"}, {"smiles": "Cc1nc2ccc(N=NC3=C(O)CCCC3=O)cc2s1", "Potency": "inconclusive: 8.91 µM [quencher, side channel, partial curve]"}, {"smiles": "CS(=O)(=O)c1ccc(Oc2ccc(-c3nnco3)cc2)c([N+](=O)[O-])c1", "Potency": "inconclusive: 14.1 µM [quencher, side channel, partial curve]"}, {"smiles": "CCn1c2ccccc2c2cc(NC(=O)c3ccc(C)c([N+](=O)[O-])c3)ccc21", "Potency": "inconclusive: 0.631 µM [quencher, side channel, partial curve, poor fit]"}, {"smiles": "CC1CN=C2C(C(=O)Nc3ccccc3)=C(O)CC(c3ccccc3)N21", "note": "(centres undefined)", "Potency": "inconclusive: 28.2 µM [quencher, side channel, single point]"}, {"smiles": "CCOc1ccc(Br)cc1C1=NN(C(C)=O)C(c2ccc([N+](=O)[O-])s2)O1", "note": "(centres undefined)", "Potency": "inconclusive: 8.91 µM [quencher, side channel, partial curve]"}, {"smiles": "N#C/C(=C\\c1ccco1)C(=O)Nc1cccc2ncccc12", "Potency": "inconclusive: 35.5 µM [activator, single point]"}, {"smiles": "COc1ccc([N+](=O)[O-])cc1N1C(=O)c2cccnc2C1=O", "Potency": "inconclusive: 12.6 µM [quencher, side channel, partial curve]"}, {"smiles": "COC(=O)c1ccc(OS(=O)(=O)N(C)C)cc1", "Potency": "inactive"}, {"smiles": "CC1CC1C(=O)Nc1nc(-c2ccccn2)cs1", "note": "(centres undefined)", "Potency": "inactive"}, {"smiles": "Cc1cccn2cc(CCNS(=O)(=O)c3cccc([N+](=O)[O-])c3)nc12", "Potency": "inconclusive: 10 µM [quencher, side channel, partial curve]"}, {"smiles": "CCN1CCN(CCCOc2ccc(Cl)cc2Br)CC1", "Potency": "inactive"}, {"smiles": "COCCN(Cc1cn[nH]c1-c1ccc2cc(OC)ccc2c1)C(C)C", "Potency": "inconclusive: 39.8 µM [quencher, side channel, partial curve, poor fit]"}, {"smiles": "COC(=O)c1cc(NC(=O)c2cc(C)oc2C)cc(C(=O)OC)c1", "Potency": "inactive"}, {"smiles": "COc1ccc(/C=C/C(=O)N(C(C)C)C(C)C)cc1Br", "Potency": "inactive"}, {"smiles": "CCS(=O)(=O)n1nc(-c2ccccc2)nc1NCc1ccco1", "Potency": "inconclusive: 2.24 µM [quencher, side channel, partial curve]"}, {"smiles": "CCCNC(=O)c1ccc(N2CCC3(CC2)CC(c2ccccc2)=NO3)c([N+](=O)[O-])c1", "Potency": "inconclusive: 14.1 µM [quencher, side channel, partial curve]"}, {"smiles": "S=c1[nH]nc(-c2ccccc2)n1Cc1ccccc1", "Potency": "inactive"}, {"smiles": "CC(C)(Cc1ccc(O)cc1)NC(=O)CC(=O)N=Nc1c(O)[nH]c2ccc(Br)cc12", "Potency": "inconclusive: 11.2 µM [quencher, side channel, partial curve]"}, {"smiles": "CCOC(=O)c1c(=O)n(O)c2ccc(OC)cc2[n+]1[O-]", "Potency": "inconclusive: 17.8 µM [quencher, side channel, partial curve]"}, {"smiles": "O=C1CCC(=O)N1c1ccc(NCCc2cccc(F)c2)c([N+](=O)[O-])c1", "Potency": "inconclusive: 2.82 µM [quencher, side channel, full curve, poor fit]"}, {"smiles": "O=C(CCNC(=O)c1ccccc1)N/N=C/c1ccc([N+](=O)[O-])cc1", "Potency": "inconclusive: 7.08 µM [quencher, side channel, partial curve]"}, {"smiles": "Cc1ccc2nc(CSc3nnc(Cc4cccs4)n3C3CCCCC3)cc(=O)n2c1", "Potency": "inconclusive: 25.1 µM [quencher, side channel, single point]"}, {"smiles": "Cc1ccccc1NC1=NCC(c2ccc([N+](=O)[O-])cc2)S1", "note": "(centres undefined)", "Potency": "inconclusive: 39.8 µM [quencher, single point]"}, {"smiles": "O=C(CSc1nc2ccccc2c(=O)n1Cc1ccccc1)Nc1ccc(Br)cc1C(=O)O", "Potency": "inconclusive: 35.5 µM [fluorescent, side channel, single point]"}, {"smiles": "COc1ccc(C(=O)[C@H]2[C@H]3C(=O)N(c4ccc(OC(C)=O)cc4)C(=O)[C@H]3C3C=CC=NN32)cc1", "note": "(some centres undefined)", "Potency": "inconclusive: 25.1 µM [quencher, single point]"}, {"smiles": "FC(F)Oc1ccc(NC(=S)NCc2nc3ccccc3[nH]2)cc1", "Potency": "inactive"}, {"smiles": "CSc1ccccc1C(=O)N1CCC(n2nccc2NC(=O)C(C)(C)C)CC1", "Potency": "inactive"}, {"smiles": "CC(=O)Nc1cccc(C(=O)/C=C/c2ccc(/C=C/C(=O)c3cccc(NC(C)=O)c3)cc2)c1", "Potency": "inconclusive: 0.355 µM [fluorescent, side channel, partial curve]"}, {"smiles": "Cc1onc(C(=O)Nc2ccc3c(c2)OCO3)c1[N+](=O)[O-]", "Potency": "inconclusive: 28.2 µM [quencher, side channel, partial curve]"}, {"smiles": "CCOC(=O)N1CCN(C(=O)Nc2ccc3nc(-c4ccccn4)c(-c4ccccn4)nc3c2)CC1", "Potency": "inconclusive: 14.1 µM [quencher, side channel, partial curve]"}, {"smiles": "COc1ccc(-c2nn(-c3ccccc3)cc2CO)cc1", "Potency": "inactive"}, {"smiles": "CC(=O)Nc1ccc(Sc2ncnc3scc(-c4ccccc4)c23)cc1", "Potency": "inactive"}]}]}
